# Reference: PMC9911399, “Two distinct binding modes provide the RNA-binding protein RbFox with extraordinary sequence specificity”
# Residue numbers refer to the chain shown, from its start. The list shows a part of the results.
# T1: RBFOX1 RRM (Homo sapiens, UniProt Q9NWB1 109-208)
# T1 sequence: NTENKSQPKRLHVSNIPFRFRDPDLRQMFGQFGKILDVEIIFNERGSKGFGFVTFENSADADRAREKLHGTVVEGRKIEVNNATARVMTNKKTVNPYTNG
# B1: AGCUAUU (DNA:RNA)
# RNA: GGGAGACCGGAAUUCAGAUUGUCCAGCUAUUUUAAAUCCCGUCGUAGCCACCA
# DNA 1: CAATCTGAATTCCGGTCTCCC
# DNA 2: TGGTGGCTACGACGGGATT
# B2: UAUUCUA (DNA:RNA)
# RNA: B1 RNA with A25U, G26A, C27U, A29C, U31A
# DNA 1: CAATCTGAATTCCGGTCTCCC
# DNA 2: TGGTGGCTACGACGGGATT
# B3: GCCUAGA (DNA:RNA)
# RNA: B1 RNA with A25G, G26C, U30G, U31A
# DNA 1: CAATCTGAATTCCGGTCTCCC
# DNA 2: TGGTGGCTACGACGGGATT
# B4: CGGAGUA (DNA:RNA)
# RNA: B1 RNA with A25C, C27G, U28A, A29G, U31A
# DNA 1: CAATCTGAATTCCGGTCTCCC
# DNA 2: TGGTGGCTACGACGGGATT
# B5: AUCUGCU (DNA:RNA)
# RNA: B1 RNA with G26U, A29G, U30C
# DNA 1: CAATCTGAATTCCGGTCTCCC
# DNA 2: TGGTGGCTACGACGGGATT
# B6: AAGCGUU (DNA:RNA)
# RNA: B1 RNA with G26A, C27G, U28C, A29G
# DNA 1: CAATCTGAATTCCGGTCTCCC
# DNA 2: TGGTGGCTACGACGGGATT
# B7: AGGAAGC (DNA:RNA)
# RNA: B1 RNA with C27G, U28A, U30G, U31C
# DNA 1: CAATCTGAATTCCGGTCTCCC
# DNA 2: TGGTGGCTACGACGGGATT
# B8: AAGUGCA (DNA:RNA)
# RNA: B1 RNA with G26A, C27G, A29G, U30C, U31A
# DNA 1: CAATCTGAATTCCGGTCTCCC
# DNA 2: TGGTGGCTACGACGGGATT
# B9: GCCGAAG (DNA:RNA)
# RNA: B1 RNA with A25G, G26C, U28G, U30A, U31G
# DNA 1: CAATCTGAATTCCGGTCTCCC
# DNA 2: TGGTGGCTACGACGGGATT
# Molecular target: T1, RBFOX1 RRM
# Test: EMSA; HiTS-Eq, 1 nM pool, 10 min; buffer printed only for the single-RNA assays: 10 mM Tris pH 7.5, 150 mM NaCl, 3.4 mM EDTA, 0.001% NP-40, 30 C
# Details: tags: His6 N-terminal (pET28a); label: 5' 32P
# Method in brief: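 Relative association constants, normalised to the cognate motif, were derived by comparing read counts of each RNA species with those of the control reaction. The RNA sequenced was the free fraction, separated by 8% native PAGE after a 10 min equilibration in 50 µL of 1 nM 5′-radiolabelled RNA (7 randomized nucleotides) with increasing concentrations of purified wild-type or mutant RbFox RRM.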
row,Binder,binding signal
1,B1,0.00809 KA relative to UGCAUGU
2,B2,0.00393 KA relative to UGCAUGU
3,B3,0.0135 KA relative to UGCAUGU
4,B4,0.0138 KA relative to UGCAUGU
5,B5,0.0118 KA relative to UGCAUGU
6,B6,0.00533 KA relative to UGCAUGU
7,B7,0.0126 KA relative to UGCAUGU
8,B8,0.0164 KA relative to UGCAUGU
9,B9,0.0193 KA relative to UGCAUGU
